# Laboratory results taken from PMC4336329 (PLoS ONE, 2015).
# Among all 310,000 compounds or so, about 2,200 (0.71%) showed an effect of 50% or more. The effect is printed as a negative number. Some of the results follow.
# Target: human ether-à-go-go-related gene (hERG) potassium channel (human, UniProt Q12809)
# Assay: primary screen, population patch clamp on CHO cells stably expressing hERG
# Chain of human ether-à-go-go-related gene (hERG) potassium channel (Q12809 whole entry, looked up): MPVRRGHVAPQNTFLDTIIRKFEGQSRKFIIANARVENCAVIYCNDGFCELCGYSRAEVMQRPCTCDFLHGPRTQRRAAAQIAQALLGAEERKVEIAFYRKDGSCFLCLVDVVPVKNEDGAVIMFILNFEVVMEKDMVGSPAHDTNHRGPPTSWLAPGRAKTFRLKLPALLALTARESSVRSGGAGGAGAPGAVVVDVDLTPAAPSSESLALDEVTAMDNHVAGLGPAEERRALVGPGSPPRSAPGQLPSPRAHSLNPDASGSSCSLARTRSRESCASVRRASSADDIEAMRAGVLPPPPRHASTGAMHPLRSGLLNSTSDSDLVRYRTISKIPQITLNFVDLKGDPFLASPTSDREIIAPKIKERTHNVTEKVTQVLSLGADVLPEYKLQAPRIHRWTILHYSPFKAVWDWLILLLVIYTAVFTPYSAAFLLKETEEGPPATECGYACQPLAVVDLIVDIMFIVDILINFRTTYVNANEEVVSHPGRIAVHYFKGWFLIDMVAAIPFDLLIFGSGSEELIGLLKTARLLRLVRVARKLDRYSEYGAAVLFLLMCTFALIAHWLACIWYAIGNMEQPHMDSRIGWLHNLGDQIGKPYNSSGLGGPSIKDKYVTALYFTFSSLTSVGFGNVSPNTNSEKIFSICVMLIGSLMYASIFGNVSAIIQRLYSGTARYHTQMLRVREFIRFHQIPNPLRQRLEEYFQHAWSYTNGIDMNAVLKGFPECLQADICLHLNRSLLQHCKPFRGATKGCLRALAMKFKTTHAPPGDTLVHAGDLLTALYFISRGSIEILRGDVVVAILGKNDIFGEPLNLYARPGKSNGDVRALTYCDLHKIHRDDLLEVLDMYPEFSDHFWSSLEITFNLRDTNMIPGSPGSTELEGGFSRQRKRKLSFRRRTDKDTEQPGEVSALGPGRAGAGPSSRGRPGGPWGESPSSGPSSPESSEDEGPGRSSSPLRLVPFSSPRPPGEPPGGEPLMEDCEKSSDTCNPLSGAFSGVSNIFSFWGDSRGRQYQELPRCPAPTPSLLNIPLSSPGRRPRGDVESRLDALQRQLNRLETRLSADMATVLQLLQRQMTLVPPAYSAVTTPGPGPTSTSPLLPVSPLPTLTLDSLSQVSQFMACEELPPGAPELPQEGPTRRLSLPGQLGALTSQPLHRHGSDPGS
row,Compound,"hERG current change (%, negative = inhibition) at 1uM [%]"
1,O=C(CN1C(=O)NC2(CCCC2)C1=O)Nc1nc2ccc(F)cc2s1,-8.4
2,COc1cc(NS(=O)(=O)c2ccc3c(c2)C(C)(C)C(=O)N3C)cc(OC)c1,4.96
3,CCNC(=O)O/N=C1\CCCCC1c1ccc([N+](=O)[O-])cc1[N+](=O)[O-] (centres unmarked),6.38
4,COc1cccc(C(=O)/C=C/Nc2ccc(S(=O)(=O)Nc3ccc(C(C)=O)cc3)cc2)c1,12
5,Cc1ccc(NC(=S)N2CCC(N(C)CC3CCCO3)CC2)c(C)c1 (centres unmarked),-7.06
6,Cc1sc(NC(=O)c2ccccc2F)c(CN2CCCCC2)c1C,9.65
7,O=C(NCCN1CCOCC1)c1ccc(F)cc1,3.36
8,COc1ccc(NC(=S)NNC(=O)CNc2ccc(Cl)cc2)cc1,-1.3
9,CC(C)N1CCc2c(sc(NC(=O)Cc3ccccc3)c2C(N)=O)C1.Cl,6.18
10,CSc1ccccc1OCc1cc(C(=O)N2CCC[C@H]2C(N)=O)no1,12.1
11,O=C(O)COc1ccc(/C=N/NC(=O)COc2nsnc2N2CCOCC2)cc1,13.5
12,CCOc1cc2[nH]c(=S)n(CCCC(=O)NCc3ccco3)c(=O)c2cc1OCC,-0.751
13,COc1ccc(C(=O)Nn2c(C3CCC3)nc3ccccc3c2=O)c(OC)c1,0.925
14,CCN(CC)CCNC(=O)c1cc2ccccc2nc1Cl,22.8
15,Cc1cc(C(=O)N/N=C/c2sc(N3CCOCC3)nc2-c2ccccc2)c(C)o1,13.4
16,FC(F)(F)c1cc(Oc2ccccc2)nc(-c2ccccn2)n1,-4.27
17,COc1ccc(-c2cc(C(=O)N3CCN(Cc4ccc5c(c4)OCO5)CC3)on2)cc1OC,10.4
18,COc1ccc2oc(C)c(C(=O)Cn3ccnc3)c2c1,-15
19,COc1ccc(CCN(Cc2cccs2)S(=O)(=O)c2ccc(S(=O)(=O)N(C)C3CCCCC3)cc2)cc1OC,10.9

row,Compound,"hERG current change (%, negative = inhibition) at 1uM [%]"
1,COc1ccc(C(=O)NC2CCCc3c2cnn3-c2ccccc2F)cc1OC (centres unmarked),7.97
2,CC1(c2nnc(Cc3ccccc3)o2)CC(c2ccccc2[N+](=O)[O-])=NO1 (centres unmarked),0.886
3,CC1CCC(NC(=O)CCS(=O)(=O)c2ccc3c(c2)CC(C)N3C(=O)C2CC2)CC1 (centres unmarked),19.5
4,COc1ccc(CCNC(=O)c2cc(Cl)nc3ccccc23)cc1,17.6
5,COc1ccc(S(=O)(=O)N2CCCN(Cc3cccc(F)c3)CC2)cc1,4.73
6,O=C1OC(Oc2ccccc2)(c2ccccc2)c2ccccc21 (centres unmarked),-12
7,NC(=O)C1CCN(C(=O)C23CC4CC(CC(C4)C2)C3)CC1,15.4
8,COCCNC(=O)Cn1cc(S(=O)(=O)N2CCN(c3ccccc3F)CC2)c2ccccc2c1=O,5.24
9,CCc1ccc(C(C)NC(=S)NCc2ccc(F)cc2)cc1 (centres unmarked),10.1
10,CCCN(CC(=O)Nc1ccccc1C)C(=O)COC(=O)CSc1ccc([N+](=O)[O-])cc1,11.9
11,CC(=O)c1cccc(S(=O)(=O)N2CCCC(c3nc4c(nnn4Cc4ccc(C)cc4)c(=O)[nH]3)C2)c1 (centres unmarked),15.5
12,CC(C)c1ccc(NC(=O)C(c2ccccc2)N2CCC3(CC2)OCCO3)cc1 (centres unmarked),-11.7
13,CCc1ccc(-c2nc(CSCC(=O)NCCCN3CCCC3=O)c(C)o2)cc1,-4.12
14,CC(=O)NN1C(=O)c2ccc(Oc3ccc([N+](=O)[O-])cc3)cc2C1=O,0.938
15,O=C(Nc1nc(-c2cccs2)c(C(=O)C(F)(F)F)s1)c1ccccc1,11.1
16,CC(C)(C)OC(=O)N[C@@H](Cc1ccccc1)C(=O)N[C@@H](CO)[C@H](O)[C@@H]1C[C@@H]1C(=O)N1CCCC1,16.3
17,C=CCNC(=O)C1CCC(=O)N1S(=O)(=O)c1ccc(C)cc1 (centres unmarked),20
18,Cc1nnc(SCCN2CCOCC2)n1-c1cccc(Cl)c1.O=C(O)C(=O)O,-0.94
19,O=C(CCNC(=O)OCc1ccccc1)NC1CCCCC1,11

row,Compound,"hERG current change (%, negative = inhibition) at 1uM [%]"
1,O=S(=O)([N-]c1nc2ccccc2nc1-[n+]1ccccc1)c1ccccc1,15.3
2,COc1ccc(N/N=C/c2c(C(=O)O)ccc3ccccc23)cc1,7.87
3,CCn1c2ccc(C)cc2c2nnc(NN)nc21,3.56
4,O=C1CSC(c2ccc(Cl)c(Cl)c2)N1c1nccs1 (centres unmarked),13.7
5,CCOC(=O)N/N=C\c1sccc1C,5.04
6,Cc1ccc(C(=O)N/N=C\c2cc(Br)c(Br)o2)cn1,13.2
7,FC(F)(F)c1cc(-c2ccco2)nc(NCc2cccnc2)n1,7.98
8,COc1ccc(OCc2nnc(SCC(N)=O)n2-c2ccccc2OC)cc1,3.69
9,Cl.O=C(O)c1ccc(Nc2ncnc3scc(-c4ccccc4)c23)cc1,20.4
10,O=C(CCNC(=O)c1ccccc1)Nc1nc2ccccc2s1,4.88
11,Cc1cccc(C)c1NC(=O)CNC(=O)c1cccnc1,11.3
12,O=C(N/N=C/c1ccc2c(c1)OCO2)c1cccc2ccccc12,9.57
13,Cc1ccc(C(=O)N2CCOCC2)cc1Cl,10.2
14,COc1ccc(CN(C)C2CCN(C)CC2)cc1OC,17.1
15,O=C(CC1CCCCC1)NCC1CCCO1 (centres unmarked),-1.45
16,C(#Cc1ccc(C#CCN2CCOCC2)cc1)CN1CCOCC1,1.28
17,Oc1c(N=NC(=S)Nc2ccccc2F)c2ccccc2n1Cc1ccccc1F,11.9
18,COC(=O)c1ccccc1NC(=O)Cn1cnc2cc(C)c(C)cc21,2.29
